The labels stand for the following.
T1: UNK ZnF1-3 (human, UniProt Q9C0B0 31-174)
T1 sequence: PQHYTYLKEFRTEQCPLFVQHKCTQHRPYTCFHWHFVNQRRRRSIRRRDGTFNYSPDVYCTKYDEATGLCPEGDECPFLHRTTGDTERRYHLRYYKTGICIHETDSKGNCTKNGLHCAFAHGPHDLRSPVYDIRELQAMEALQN

B1: chr9:14812383:14812384:-_ENSMUSG00000031934_ENSMUST00000164273|mus_mus|mus_mus_mus_hu_True|28_78 (ssRNA)
RNA: GGGAGUUCUACAGUCCGACGAUCAUAGCCCAGGUAGAUACACGCUAACAGUAUAAUCACAAAUGUCAGCAGGCGGCAGCUAAUGUACUUGAUGAUUAAAUUAUUAGAGUUCUUUUUUGUCUUCAAGUACUGCUCCACAAUUGGCAACAGAGGAUUGAGCAUCA
B2: chr5:40767622:40767623:-_ENSG00000132356_ENST00000397128|hu_mus|hu_hu_hu_mus_False|48_48 (ssRNA)
RNA: GGGAGUUCUACAGUCCGACGAUCAUCUUUUAUUGCGGCCCUCUUCAUGGGAUCCACCUGCAGCAUAUGUUUCAAAAGGCUGAUUACAGAAGGAUUUAAGUACUGAGGGGUAUAAAAGAUCCCAUCACAUAUCUUCUUAAAAAGCAACAGAGGAUUGAGCAUCA
B3: chr7:26081458:26081459:-_ENSMUSG00000005447_ENSMUST00000140093|mus_mus|FALSE|FALSE (ssRNA)
RNA: GGGAGUUCUACAGUCCGACGAUCACCACCAAUGCCAAAGUUAAGUGCAUGCAGAGGUGAGAAGAGCUCCCGCCAGAUCUGGGGUCAAGAAAUGACGUAGACACUAGCCACCACCCUCUGUCCAGGCCAUUAUGGACAUAUCAUCAACAGAGGAUUGAGCAUCA
B4: chr17:73195629:73195630:+_ENSMUSG00000039770_ENSMUST00000045174|mus_mus|FALSE|FALSE (ssRNA)
RNA: GGGAGUUCUACAGUCCGACGAUCACGGGUACCACCGAUAUGGUCAAGAAAGAUUCUGCCCAUUUUGACAACUGAAGUUCUAAAAAGCGGCGUGCUGGGAAUCGGCGCUGCCAGCAGCUCUUCGCUCCUCAGCUGGGUCGAAGCCAACAGAGGAUUGAGCAUCA
B5: chrX:98480239:98480240:+_ENSMUSG00000079487_ENSMUST00000087948|mus_mus|FALSE|FALSE (ssRNA)
RNA: GGGAGUUCUACAGUCCGACGAUCUGCACAGCGAAUCAGGUCUUCUAGGAGCAAACAUUGACGGGCGAUGAGGAUAGCAACAAAAGUAGCCAAGGAAUCAUGAAAAGACAAAUCACUGACGUCUACGUUGCACAGGAGAUCAUUCAACAGAGGAUUGAGCAUCA
B6: 172822409_172823029_687_CDS_ENSG00000128708_ENST00000264108|human|control|control (ssRNA)
RNA: GGGAGUUCUACAGUCCGACGAUCACGUGGCCGGGUUUUGUCUGGGUACACAUAGUAAUUAUAGACUGUCAUGUAGCCUACGGUCGCAAAGAGCGUAGCUCCAUCCUUAUUAUACUUCUCAAAUACUAGAAAGUAGUGCCAUCUCAACAGAGGAUUGAGCAUCA
B7: chr16:94690093:94690094:+_ENSMUSG00000040785_ENSMUST00000117648|mus_hu|mus_mus_mus_hu_True|78_88 (ssRNA)
RNA: GGGAGUUCUACAGUCCGACGAUCGGGCUGGGAUGACGGACACACAGAUCUUCCCAGGGUAAAAAAAAGUCUUAGUCGAUACUAAUUAAAAAGUGUUAAUGAUUUUUGAAAAUCAGAUUACAUCUAUAAAAGAUGAAAAGCAAACAACAGAGGAUUGAGCAUCA
B8: chr7:54825262:54825263:-_ENSG00000132432_ENST00000352861|hu_hu|hu_hu_hu_mus_False|18_78 (ssRNA)
RNA: GGGAGUUCUACAGUCCGACGAUCCUGCCGGCUGGGCUCCACAAACUGCAUUACCUGCAUGACUGCCGUUGGAUGGCGGAUUGAGAGCGUAGAGACACGUAGCUCAGGAGAGAACCGGAUGGAGGCCAACCGGAAGCUGGCAACCAACAGAGGAUUGAGCAUCA
B9: 3802659_3802779_390_3pUTR_ENSMUSG00000040351_ENSMUST00000043551|mouse|control|control (ssRNA)
RNA: GGGAGUUCUACAGUCCGACGAUCUGUCGCGGCCACCUGGCUCUCGCGCCGAGCGGGUGACCUCUCGGGUCCACUCGGCGCCCCACCCACCCGCCGGCGGCGGCGGCUGCGGGAGCCGGAGGAUGCGCGCUGGAGGCCCGCGGGCAACAGAGGAUUGAGCAUCA
B10: chr9:72849539:72849540:+_ENSMUSG00000034563_ENSMUST00000085350|mus_hu|FALSE|FALSE (ssRNA)
RNA: GGGAGUUCUACAGUCCGACGAUCAUUUCCAAUUUCUUCUAACUUAGGUGGCUCAAGGGUAACAAUAUCAGAAUCAUCACUGGCAGUUCCAAUAUAGAUACUGUCUUCGGGUAUCUUUUGUUCCUCUGCCUCAAUUGUUGAGCUCAACAGAGGAUUGAGCAUCA
B11: chr11:251552:251553:+_ENSG00000185627_ENST00000382671|hu_mus|FALSE|FALSE (ssRNA)
RNA: GGGAGUUCUACAGUCCGACGAUCGGCACUUUUGGCAAUUUCUUCAAAAGUGAGUUGUCUGUGGUUGGCAGGCCGUGUGAAAGUCAUCUCCAUAAGGCACAACAGCUGGAUCUUCCUCAGAAGCUGGGCUUCGUUGGCUGCUAACAACAGAGGAUUGAGCAUCA
B12: chr9:139297273:139297274:-_ENSG00000165689_ENST00000371725|hu_hu|motif|central (ssRNA)
RNA: GGGAGUUCUACAGUCCGACGAUCAACACCCAGGGGUCCUCAAGAGUCUUCCUCCUCGUCUUUAACUUCAGAAAUUCUGUCGGUAGAUUUAAGGAUUUCGGCAACAAGAUUCAGUGUCUCAGCUCCGGAAACCAGUUGCUUGAUCAACAGAGGAUUGAGCAUCA
B13: chr5:111654635:111654636:+_ENSMUSG00000033209_ENSMUST00000156290|mus_hu|FALSE|FALSE (ssRNA)
RNA: GGGAGUUCUACAGUCCGACGAUCCAGACUUCCCAGCUCUCCAUAGGCCUGGGCUUUAUUGAAGGCCUCUCCAAGUUCAUGAGCAACCACGAGCCUCUUUUCAAAGCACACAAGGGCUUGCUGCAAGCUCCCCAUUGCCCUGUGCAACAGAGGAUUGAGCAUCA
B14: 108150678_108154337_475_3pUTR_ENSG00000110851_ENST00000228437|human|control|control (ssRNA)
RNA: GGGAGUUCUACAGUCCGACGAUCAUUGCUCACAGAGGAUGAAGUCAGCUGCUCCAUCCCCACUGGACUCAGGUUCAUUUCAUUCAUCCUGUGAUGCAUCGGCUUGGGGCCAAAUAUCAGAGAAAGGAGCGCUCGGGUGGUGGGCAACAGAGGAUUGAGCAUCA
B15: chr4:95690885:95690886:+_ENSMUSG00000028572_ENSMUST00000156910|mus_mus|mus_mus_mus_hu_False|18_108 (ssRNA)
RNA: GGGAGUUCUACAGUCCGACGAUCUUUAUUUUUAGAAAAAUACCAUGCUAAAAUAUUUUCAAAGGCUUAUUUUAUUUUACCAGAAGUCACAGGCAAGCAGACACUACAAGAAUAUAUAAAUACAAACCUCAACAAUAUAACUGUCAACAGAGGAUUGAGCAUCA
B16: chr7:63240916:63240917:-_ENSMUSG00000047037_ENSMUST00000052204|mus_hu|FALSE|FALSE (ssRNA)
RNA: GGGAGUUCUACAGUCCGACGAUCUAGCAGGCACCCCAACUUGCCCAAGAUGUUGAGCUUUUCCUUCAGGAGAUAGGAAGCUAAAAUGGACCCGAACGGUACUCCAAGGGCGCCCAGGGGGGUUACCAGGACCGUGGGGACCGCCAACAGAGGAUUGAGCAUCA
B17: chr22:32879901:32879902:+_ENSG00000100225_ENST00000397426|hu_mus|hu_hu_hu_mus_False|48_48 (ssRNA)
RNA: GGGAGUUCUACAGUCCGACGAUCCUCUUCCAUACUCAUGGCAUCCUGAAUUGACUCAGCUUCAACAUUUUGACUAGGCCCUUCCAUACUGUCGUCAGUCCAGGCAUCAAAUGGGGUGGCCUGUCCUUGGGAUGAAUCAGUCCCCAACAGAGGAUUGAGCAUCA
B18: chr2:181367561:181367562:+_ENSMUSG00000002455_ENSMUST00000002529|mus_mus|FALSE|FALSE (ssRNA)
RNA: GGGAGUUCUACAGUCCGACGAUCAACACGCUUCUUUGCUCGAAUGUCUGUUUCUAGCUCUGCUGCUCUGAUGUAAAUCCUAACAGACUGCGGGAGAUGACGGACAGCUUGUGCCACCACAGCCUUGGCUGUGUCCCCAGGCUGCAACAGAGGAUUGAGCAUCA
B19: chr2:32445735:32445736:+_ENSG00000152683_ENST00000406369|hu_hu|FALSE|FALSE (ssRNA)
RNA: GGGAGUUCUACAGUCCGACGAUCUCAAUAUUCCUUAUAAAAAUAAGUUAGAGUCUAUCAUGGUCUUGGUUGUCCAAUUCUAUUAUUAGUUCCAUAUCUACUUGGUAUAUUUGUAAAACCAGUCCUCAAUCCUUGAGUUGCUCCCAACAGAGGAUUGAGCAUCA
B20: chr2:171811166:171811167:+_ENSG00000115806_ENST00000234160|hu_hu|FALSE|FALSE (ssRNA)
RNA: GGGAGUUCUACAGUCCGACGAUCUCCUUCCUCAAAUGGGCGUGUAGGUAUUCGAUGCAAAUAACCAUAUCCAAUGCCACAUCCUAGGCUGCCUUCUCCACCCCAUGCAGAAUUUGGUGUAAUAAUCACUUCUCGACAGUUAUCCAACAGAGGAUUGAGCAUCA
B21: chr14:73742652:73742653:-_ENSG00000133961_ENST00000557597|hu_hu|FALSE|FALSE (ssRNA)
RNA: GGGAGUUCUACAGUCCGACGAUCCCCCUUUACCUUUGGCAAGAUUACUUACAACUCAUACAACUUCUUAAUAUCUGAGAACUAUUUAAAAUAUUCUAAAUGCAUAAAAAUAAAGAUUUUGGCUUUUGAUAUAUAUAAUAUUUACAACAGAGGAUUGAGCAUCA
B22: chr15:66793352:66793353:-_ENSG00000174444_ENST00000568588|hu_hu|FALSE|FALSE (ssRNA)
RNA: GGGAGUUCUACAGUCCGACGAUCCUUGAGGGAAGCGGCUUUACGCCAAGUGCCGUACAAUUCAUCUAACUUCCGGAAAGCACUUUCAGUCCAAAUGCAGAAACGUCCCACAUGCCCACCAGGAGCAAGCUUCAAAAUGUUCAGCAACAGAGGAUUGAGCAUCA

This is one part of the list.

This assay deals with T1, UNK ZnF1-3. The assay is described as follows: nsRBNS (natural sequence RNA bind-n-seq); RBNS binding buffer (assumed for nsRBNS): 25 mM Tris pH 7.5, 150 mM KCl, 3 mM MgCl2, 0.01% Triton X-100, 500 ug/ml BSA, 20 U/ml SUPERase-In, 4 C; UNK is unkempt and MSI1 is Musashi-1; names of the RNAs are library labels; protein concentration not given here; high values mean tight binding.
In turn, B1 displayed a binding signal of 1.64 enrichment R. In turn, B2 yielded a binding signal of 1.68 enrichment R. With B3, the binding signal was found to be 1.78 enrichment R. Regarding B4, the binding signal turned out to be 0.75 enrichment R. Molecule B5 yielded a binding signal of 1.42 enrichment R. Consider B6, for which the binding signal is 0.725 enrichment R.

Molecule B7 showed a binding signal of 2.24 enrichment R. In turn, B8 displayed a binding signal of 0.99 enrichment R. As for B9, the binding signal turned out to be 0.986 enrichment R. Regarding B10, the binding signal came out at 0.714 enrichment R. Under B11 stands 0.739 enrichment R; under B12, 1.04 enrichment R; under B13, 1.14 enrichment R. The molecule B14 came in with a binding signal of 1.48 enrichment R. The molecule B15 displayed a binding signal of 1.95 enrichment R. Take B16: the binding signal stood at 1.15 enrichment R. The molecule B17 returned a binding signal of 0.967 enrichment R. With B18, the binding signal amounted to 0.555 enrichment R. Take B19: the binding signal worked out at 1.04 enrichment R. Molecule B20 displayed a binding signal of 1.03 enrichment R. The molecule B21 displayed a binding signal of 1.07 enrichment R. In turn, B22 showed a binding signal of 0.993 enrichment R.

The values are drawn from article PMC12136788.
